Target: T1, sdAb20 fused to a mouse IgG2a-Fc tail
T1 construct: as the VHH of m1; The His6 tag of sdAb20 was replaced by the mIgG2a-Fc region; Size about 80 kDa; also called sdAb20-Fc; Fc-coupled sdAb20; source: bought: ImmunoPrecise Antibodies; not shown: Fc (mouse IgG2a), C-terminal, kept
Test: flow cytometry on cells; sdAb20 or sdAb20-Fc on AXL-expressing human and murine cancer cell lines, compared with the irrelevant control R3B23 or R3B23-Fc; read-out MFI
Settings: one partner purified

T1 sequence (P30530 26-894): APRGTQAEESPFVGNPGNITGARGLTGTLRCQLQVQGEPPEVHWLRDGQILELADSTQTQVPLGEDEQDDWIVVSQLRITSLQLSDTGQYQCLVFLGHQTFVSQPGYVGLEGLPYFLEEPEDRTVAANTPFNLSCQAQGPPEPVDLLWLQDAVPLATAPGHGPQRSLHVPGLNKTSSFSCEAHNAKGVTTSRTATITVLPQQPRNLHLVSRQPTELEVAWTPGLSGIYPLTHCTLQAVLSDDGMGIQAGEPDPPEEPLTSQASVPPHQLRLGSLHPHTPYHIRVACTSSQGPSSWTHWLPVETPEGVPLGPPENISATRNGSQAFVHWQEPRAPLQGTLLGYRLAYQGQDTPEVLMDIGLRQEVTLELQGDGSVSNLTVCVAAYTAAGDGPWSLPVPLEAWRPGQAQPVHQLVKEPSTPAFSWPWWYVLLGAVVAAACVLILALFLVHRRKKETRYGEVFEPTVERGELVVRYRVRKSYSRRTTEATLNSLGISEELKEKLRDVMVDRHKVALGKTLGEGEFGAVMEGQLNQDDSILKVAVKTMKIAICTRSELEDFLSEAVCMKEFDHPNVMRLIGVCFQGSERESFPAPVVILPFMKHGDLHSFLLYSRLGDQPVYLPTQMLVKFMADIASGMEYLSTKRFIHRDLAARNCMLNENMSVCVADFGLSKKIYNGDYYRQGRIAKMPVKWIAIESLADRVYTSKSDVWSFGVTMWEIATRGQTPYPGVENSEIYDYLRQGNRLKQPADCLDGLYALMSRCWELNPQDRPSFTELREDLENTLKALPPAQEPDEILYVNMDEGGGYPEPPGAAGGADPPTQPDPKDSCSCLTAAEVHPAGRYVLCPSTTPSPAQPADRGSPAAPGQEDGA

B1: human AXL on AXL^+ human cancer cell lines (receptor)
chain: not shown
notes: receptor tyrosine kinase AXL, human, on the surface of AXL-positive cell lines; also called AXL receptor; source: endogenous, on THP-1, MOLM-13, MV-4-11, A549 and HCT-116 cells
Question: Does B1 bind?
Answer: Result: binds

— article PMC11103505, “AXL-specific single domain antibodies show diagnostic potential and anti-tumor activity in Acute Myeloid Leukemia” (Theranostics, 2024)
